Reference: PubChem BioAssay AID624296 (National Center for Advancing Translational Sciences (NCATS), 2012)
Screen size: about 350,000 compounds; about 9,900 (2.8%) were called active. The shares of active, inactive and inconclusive entries below differ from those in the screen. Calls come from the whole dose curve; as a rule, active = well fitted activation curve with a large enough effect; inconclusive = small, poorly fitted or top-dose-only effect; inactive = no such curve, though single readings can be large or run the other way. Potencies of inconclusive entries are left out as doubtful fits.

test: A quantitative high throughput screen for small molecules that induce DNA re-replication in MCF 10a normal breast cells.; note: nearly all actives have a fitted effect of over 50% in size; conditions: MCF 10A DNA re-replication, Hoechst nuclear intensity, 48 h; series mostly up to 46.1 µM
Potency is the fitted concentration of half-maximal effect; tags give direction and shape of the fitted curve.

SMILES	Potency
COc1ccc(OC)c(S(=O)(=O)NCCOC23CC4CC(CC(C4)C2)C3)c1	inconclusive [activator, single point]
CCOC(=O)C1=C(Cc2ccc(F)cc2)C(=O)c2ccccc2C1=O	inconclusive [activator, partial curve, poor fit]
CCOc1ccccc1C(=O)N/N=C/c1ccoc1	inconclusive [activator, single point]
CC1CCc2onc(C(=O)NCc3ccco3)c2C1 (stereo unspecified)	inconclusive [activator, single point]
CCOC(=O)CNC(=O)N(CCOC)CC1CCCN(C2Cc3ccccc3C2)C1 (stereo unspecified)	inactive
CCOc1ccc(/C=N/NC(=O)c2ccc(F)cc2)cc1CN1CC2CC(C1)c1cccc(=O)n1C2 (stereo unspecified)	inconclusive [activator, single point]
CCOc1ccc(/C=C/c2nc(C#N)c(NCCCOC)o2)cc1	active: 3.66 µM
CC1CN(C(=S)Nc2cccc(Cl)c2)CC(C)O1 (stereo unspecified)	inactive
O=C1N(c2ccccc2C(F)(F)F)O[C@@]1(c1ccccc1)C1CCCC1	active: 16.4 µM
CC(C)(C)OC(=O)NCCCC[C@H](NC(=O)c1[nH]cnc1C(=O)Nc1ccc(CNC(=O)OC(C)(C)C)cc1)C(=O)OC(C)(C)C	active: 4.11 µM
CCOC(=O)c1cnc(SC)nc1Oc1cccc(NC(=O)c2cccc(Cl)c2Cl)c1	inactive
Cc1ccc2c(c1)N(CCC(=O)NC1CCCCC1C)C(=O)CO2 (stereo unspecified)	inactive
O=C(O)C1CCCCC1C(=O)Nc1ccc(S(=O)(=O)N2CCCCCC2)cc1 (stereo unspecified)	inconclusive [activator, partial curve, poor fit]
CCN1CCN(c2nn3c(=O)c4ccccc4nc3c3ccccc23)CC1	inactive
O=C(/C(=C/O)N=Nc1cccc(C(F)(F)F)c1)c1ccccc1	inconclusive [activator, single point]
Cc1cc(C)c(NC(=O)OCCN2CCOCC2)c(C)c1	inconclusive [activator, single point]
NC(=O)c1cc(-c2csc(NCCc3ccccc3)n2)ccc1O	inconclusive [activator, single point]
Cn1c(=O)c2cc(S(=O)(=O)NC(Cc3ccccc3)C(=O)NCC3CCCO3)ccc2n(C)c1=O (stereo unspecified)	inconclusive [activator, single point]
Cc1ccc(-n2nnnc2SC(C)C(=O)Nc2ccccc2-c2ccccc2)cc1 (stereo unspecified)	inactive
CCOC(=O)[C@H]1[C@H]2COc3cc(OC)ccc3[C@@H]2N2C(=O)c3cc(OC)ccc3NC(=O)[C@@]12C	inconclusive [activator, full curve, poor fit]
CC[C@@H]1C(c2cccc(Cl)c2)=NN(c2ccc(Br)cc2)[C@H]1C(=O)N1CCOC1=O	active: 1.3 µM
CC(C)C(=O)Nc1cccc(COc2ccccc2CN(Cc2ccccc2)C(=O)OC(C)(C)C)c1	active: 11.6 µM
O=C(CNC(=O)c1cccs1)NCC(=O)OCc1c(Cl)cccc1Cl	inconclusive [activator, full curve, poor fit]
CCCCn1c(SCC(=O)N2CCN(c3ccccc3)CC2)nc2ccsc2c1=O	inconclusive [activator, single point]

SMILES	Potency
CCOC(=O)c1c(-c2ccccc2)oc2ccc(OCC)cc12	inconclusive [activator, single point]
C/C=C/C1=CC(=O)C[C@H](c2ccc3c(c2)OCO3)C1	inconclusive [activator, full curve, poor fit]
Cc1ccc(NC(=O)c2ccc([N+](=O)[O-])o2)cc1S(=O)(=O)N1CCOCC1	active: 2.06 µM
O=C(NCc1cccc(F)c1)c1cccc2c1C(=O)c1ccc(N3CCCC3)cc1S2(=O)=O	inconclusive [activator, single point]
O=C(CCN1C(=O)c2ccccc2S1(=O)=O)Nc1ccc(F)c([N+](=O)[O-])c1	inactive
O=C(Nc1ccccn1)c1cc2cc([N+](=O)[O-])ccc2s1	inactive
COc1cc(C2C(C#N)=C(N)Oc3c2c(-c2ccccc2)nn3-c2ccccc2)cc(OC)c1OC (stereo unspecified)	inconclusive [activator, single point]
COc1ccccc1NS(=O)(=O)c1cc(NC(=O)CCc2nc3ccccc3c(=O)[nH]2)ccc1C	inactive
CN1CCC/C1=C1/C(=O)N(c2ccccc2)N=C1NC(=O)Nc1cccc(Cl)c1	inconclusive [activator, single point]
C=CCn1cc(CN2CCC(C(=O)Nc3cccc(-c4cccc(F)c4)c3)CC2)c(C)n1	inconclusive [activator, single point]
Cc1[nH]c2ccccc2c1C(=O)COC(=O)c1nccnc1N	inconclusive [activator, partial curve, poor fit]
Cc1cc(-n2nc3ccc(Cl)cc3n2)c(O)c(C(C)(C)C)c1	inactive
CN(C)c1ccc(-c2noc(C3CCN(S(=O)(=O)c4ccc(C(=O)O)cc4)CC3)n2)cc1	inactive
Clc1ccc(-c2nnc(-c3ccco3)nc2N2CCCCC2)cc1	inconclusive [activator, partial curve, poor fit]
O=S(=O)(NCCN1CCOCC1)c1cccc(C(F)(F)F)c1	inconclusive [activator, partial curve, poor fit]
CC(C(=O)N1CCCCC1)N(C)CC(=O)Nc1cccc(F)c1 (stereo unspecified)	inactive
Cc1nn(-c2ccccc2)c(C)c1/C=N/n1c(-c2ccc(C(C)(C)C)cc2)n[nH]c1=S	inconclusive [activator, single point]
COCCN(CCOC)c1nc(-c2ccc(Cl)cc2)nc2ccccc12	inconclusive [activator, single point]
CCOCc1nnc(NC(=O)CCC2CCCCC2)s1	inconclusive [activator, single point]
CN(C)c1ccc(C(=S)N2CCN(c3ccccc3)CC2)cc1	inconclusive [activator, partial curve, poor fit]
COc1ccccc1CNC(=O)COC(=O)c1cc(=O)[nH]c2ccccc12	inactive
Cc1c(CN2CCC(CO)(Cc3cccc(C(F)(F)F)c3)CC2)c2ccccc2n1C	inconclusive [activator, single point]
O=C(Cc1cccs1)Nc1nnc(SCc2ccc(C(F)(F)F)cc2)s1	inactive
C=CCNC(=S)/N=c1/scc(C)n1C	inconclusive [activator, single point]

SMILES	Potency
O=C1C=CC(=O)N1c1ccccn1	inactive
O[C@@H]1CO[C@H]2[C@@H]1OC[C@@H]2O	inactive
O=C(Oc1ccc2ccccc2c1Br)N1CCCCCC1	inconclusive [activator, single point]
COc1ccc(N2CCN(C(=O)c3cccc(S(=O)(=O)N4CCc5ccccc54)c3)CC2)cc1	inconclusive [activator, single point]
Cc1ccccc1COn1nnc2ccc(S(=O)(=O)N3CCOCC3)cc21	inactive
CCc1nc(NCc2ccccn2)c2oc3ccccc3c2n1	inactive
COc1cc(OC)c(CN2CCCN(C)CC2)cc1Br	inconclusive [activator, single point]
O=C(Cn1cnc2ccccc2c1=O)c1ccccc1	inconclusive [activator, partial curve, poor fit]
COc1cccc2cc(C(=O)NCc3ccccc3Cl)c(=O)oc12	inactive
Cc1nnc(Sc2nc3ccccc3o2)c2ccccc12	active: 12.6 µM
Nc1ccc(NC(=O)c2cccs2)c(Cl)c1	inconclusive [activator, partial curve, poor fit]
O=C(c1ccc(S(=O)(=O)Nc2ccccc2F)cc1)N1CCCC1	inactive
CSc1ccc(C(=O)C2CCCN(C(=O)c3cccnc3SC)C2)cc1 (stereo unspecified)	inactive
COc1cccc(Nc2c3c(nc4c(-c5ccccc5)c(C)nn24)CCC3)c1	active: 20.6 µM
Cc1ccc(CSc2nnc(NC(=O)Cn3cnc4ccccc4c3=O)s2)cc1	inconclusive [activator, single point]
CCCCNc1c(-c2ccc(SC(C)CC)c(OC)c2)nc2ccc(C)cn12 (stereo unspecified)	active: 16.4 µM
CCC1CCCCN1C(=O)c1cc(-c2ccc(Cl)c(Cl)c2)on1 (stereo unspecified)	inconclusive [activator, partial curve, poor fit]
CCCc1cc(=O)oc2cc(OCc3cc(OC)c(OC)c(OC)c3)c(Cl)cc12	inconclusive [activator, partial curve, poor fit]
CC(CCc1ccccc1)N1CCN(Cc2ccccc2)CC1 (stereo unspecified)	inconclusive [activator, partial curve]
CCSc1ncnc2c1oc1ccccc12	inactive
COc1ccc(CN2CCN(c3ncnc4scc(-c5ccc(F)cc5)c34)CC2)cc1	inconclusive [activator, single point]
CCOc1ccccc1NC(=O)CSC1=C(C#N)C(c2ccco2)C(C(=O)Nc2nc3ccccc3s2)=C(C)N1 (stereo unspecified)	inconclusive [activator, partial curve]
CCN(c1ccc(NC(=O)COC(=O)c2ccc([N+](=O)[O-])o2)cc1)C(C)C	inconclusive [activator, single point]
